# “And” between values parts separate entries of the source, which are not always exact repeats. Identical values can stand only once. The whole screen tested about 1,500 compounds, of which about 100 (6.7%) were called active. This list was built around the results that the source calls inconclusive (neither active nor inactive); the mix of calls is not that of the screen. Calls follow the shape of the dose curve; as a rule, active = well fitted inhibition curve with a large enough effect; inconclusive = small, poorly fitted or top-dose-only effect, or effect the other way; inactive = flat fitted curve, though single readings scatter. Where the call is inconclusive, the potency comes from a doubtful curve fit.
# Biological target: Runt-related transcription factor 1 (Homo sapiens) + Core-binding factor subunit beta (Homo sapiens) (UniProt Q01196+Q13951)
# Assay: qHTS Assay for Compounds Blocking the Interaction Between CBF-beta and RUNX1 for the Treatment of Acute Myeloid Leukemia: Hit Validation; also: nearly all actives have a fitted effect of over 60% in size
# Conditions: AlphaScreen CBFb-His/RUNX1-biotin binding; series mostly up to 59.8 µM; activity, negative = inhibition: at the top concentration
# Source text: NIH Chemical Genomics Center [NCGC]
# NIH Molecular Libraries Probe Production centers Network [MLPCN]
# Assay Submitter (PI): Paul Liu
# Core Binding Factor (CBF) abnormalities are associated with 20-25% of all acute myeloid leukemias (AML), of which 5-10% are further sub classified as acute myelomonocytic leukemia with eosinophilia, also known as M4Eo in the FAB classification scheme. This subtype of leukemia is usually associated with chromosome 16 inversion (p13:q22). Chromosome 16 inversion results in formation of the fusion oncogene CBFB-MYH11, which encodes the fusion protein CBF-beta-SMMHC.
# It has been hypothesized that the interference of CBF-beta and RUNX1 binding could have therapeutic implications for patients with CBF mediated leukemias. We developed a CBF-beta and RUNX1 binding assay in AlphaScreenTM format and optimized it for high throughput screening to search for inhibitors. The goal of this project is to screen MLPCN's compound collection (MLSMR) for identifying the inhibitors of the interaction between CBF-beta and RUNX1 proteins as research probes. If these probes work well in the animal models, the ultimate goal of this project is to development a new drug treatment for this disease.
# This assay can not be used to assess how apparent inhibitors interfere with protein binding, and whether inhibitors specifically bind to either protein. Disruption of this protein-protein interaction, through any mechanism, is the intended target activity.
# The present data set was run to confirm the activity of hits from the primary screen.
# NCGC Assay Protocol Summary:
# Step, Parameter, Description
# (1) Reagent, 3 uL CBFb-His/RUNX1-biotin mix incubated together for 20 minutes at room temperature (30 nM each)
# (2) Compound or control, 23 nL compound stock solution
# (3) Incubation, 15 minutes at Room temperature
# (4) Reagent, 1 uL 50 ng each of beads (Nickel beads and streptavidin beads)
# (5) Incubation, 90 minutes at Room temperature
# (6) Detection, Excitation=365 nm Emission=440 nm, Envision reader in AlphaScreenTM mode
# Keywords: MLSMR, MLPCN, NIH Roadmap, qHTS, NCGC, Core binding factor, CBF, CBF-beta, Acute myeloid leukemia
# % is scaled to controls: 0 for no effect and ±100 for the full control effect; potency is read from the fitted curve at half-maximal effect; tags tell the direction and shape of the fitted curve.
# UniProt Q01196, sequence (Q01196 whole entry, looked up): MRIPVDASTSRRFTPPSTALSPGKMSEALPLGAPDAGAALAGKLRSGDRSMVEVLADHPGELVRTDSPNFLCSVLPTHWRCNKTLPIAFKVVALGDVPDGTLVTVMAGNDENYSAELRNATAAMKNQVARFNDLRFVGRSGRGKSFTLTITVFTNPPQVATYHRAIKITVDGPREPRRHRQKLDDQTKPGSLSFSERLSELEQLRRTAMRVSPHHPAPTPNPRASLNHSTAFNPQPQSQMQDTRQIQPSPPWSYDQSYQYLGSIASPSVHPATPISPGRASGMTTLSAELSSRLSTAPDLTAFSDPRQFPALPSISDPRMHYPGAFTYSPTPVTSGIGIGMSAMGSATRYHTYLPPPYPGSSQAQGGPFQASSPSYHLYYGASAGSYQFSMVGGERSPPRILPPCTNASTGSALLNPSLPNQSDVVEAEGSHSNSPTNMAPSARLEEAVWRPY
# UniProt Q01196, sequence (Q13951 whole entry, looked up): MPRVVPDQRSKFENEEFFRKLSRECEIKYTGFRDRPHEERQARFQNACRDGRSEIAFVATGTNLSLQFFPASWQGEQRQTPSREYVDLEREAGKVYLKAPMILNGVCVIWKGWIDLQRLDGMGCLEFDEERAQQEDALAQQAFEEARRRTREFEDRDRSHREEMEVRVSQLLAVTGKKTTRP
SMILES,"activity, negative = inhibition",Potency
C=CCn1c(O)c(C(C)=Nc2ccc3c(c2)CCC3)c(=O)[nH]c1=O,inactive: -1.69%,
O=c1[nH]c(=S)n(-c2ccccc2)c(O)c1C=NCc1ccccn1,,"inconclusive: 2.51 µM [inhibitor, partial curve, poor fit]"
CC(C)C(N)C(=O)OCCOCn1cnc2c(=O)[nH]c(N)nc21 (stereo not drawn),,active: 0.705 µM
Cn1c(O)c(/C=N/N2CCOCC2)c(=O)[nH]c1=S,inactive: 21.1%,
Cc1cccc(OCCn2cccc2/C=C2/C(=O)NC(=O)N(Cc3ccco3)C2=O)c1,,"inconclusive: 20 µM [inhibitor, partial curve, poor fit]"
CC[n+]1c(-c2ccccc2)c2cc(N)ccc2c2ccc(N)cc21,,active: 0.499 µM
COC1C(OC(=O)c2ccc(C)[nH]2)C(O)C(Oc2ccc3c(O)c(NC(=O)c4ccc(O)c(CC=C(C)C)c4)c(=O)oc3c2Cl)OC1(C)C (stereo not drawn),,"inconclusive: 100 µM [inhibitor, partial curve, poor fit]"
Cc1nc(SCc2c(Cl)cccc2Cl)nc(OC(=O)N(C)C)c1C,inactive: 2.29%,
C/C=C/CC1(CC)C(=O)NC(=S)NC1=O,inactive: -1.71%,
O=C(O)CN1C(=O)CN=C(c2ccccn2)c2cc(Cl)ccc21,,"inconclusive: 89.1 µM [inhibitor, partial curve, poor fit]"
CC(C)(C)n1cc(C(=O)c2ccccc2)cc1-c1ccccc1,inactive: -0.565%,
CCCCNC(=O)Oc1c(Br)cc2sc(=O)oc2c1Br,,active: 6.12 µM
CCC(=NCc1ccco1)c1c(O)n(-c2ccccc2C)c(=O)[nH]c1=O,inactive: -0.548%,
COc1ccc(CN2C(=O)NC(=O)/C(=C/c3ccc(OC)c(OC)c3OC)C2=O)cc1,inactive: 9.53%,
O=C1C=CC(=O)c2c(O)cccc21,,active: 4.47 µM
CN1Cc2ccccc2[C@@H]2c3cccc4[nH]cc(c34)C[C@H]21,,"inconclusive: 3.53 µM [inhibitor, full curve, poor fit]"
NCCc1cc(O)c(O)cc1O,,"inconclusive: 12.6 µM [inhibitor, partial curve] and inconclusive: 35.5 µM [inhibitor, partial curve, poor fit]"
Cc1cc(OC(=O)N(C)C)nc(-c2ccc(C)c(Cl)c2)n1,inactive: -1.54%,
